Results as given in ChEMBL document CHEMBL4888484, “Replenishing the malaria drug discovery pipeline: Screening and hit evaluation of the MMV Hit Generation Library 1 (HGL1) against asexual blood stage Plasmodium falciparum ,using a nano luciferase reporter read-out” (2022).
The whole screen tested about 150,000 compounds, of which about 540 (0.36%) showed an effect of 50% or more. The list shows a part of the results.

system: Plasmodium falciparum; assay: Primary screen in NF54 nanoGlo assay, in single point, at 2uM, 72h; a lower Z score goes with more inhibition; type: functional, Erythrocyte; details: timepoint 72 hour

SMILES	% Inhibition	Z score
CN1CCC(CN(CCc2ccccc2)C(=O)c2cn3cc(Cl)ccc3n2)CC1	-19%	2.8
COc1ccc(-n2nc3c(N4CCCC(C(=O)NCC(C)c5ccccc5)C4)nnc(C)c3c2C)cc1 (centres undefined)	9%	-1.08
CCN1C(=O)C2(CCN(C(=O)Cc3ccccc3F)CC2)C[C@H]1C(=O)NCCOC	-6%	0.72
CCc1cnccc1NC(=O)CCCC1CCOCC1	-3%	0.38
CN1CC2CC[C@H](CC1=O)N2C(=O)CC1CC1	-4%	0.66
Cc1ccccc1C(=O)NCc1nn(C2CCCC2)c2c1COCC2	29%	-0.69
C[C@@H]1CN(Cc2ccccc2OCC(=O)N2CCCCC2)[C@@H](C)CN1	-10%	2.05
CN1C[C@H](CC(=O)N2CCCC2)Oc2ccc(C(=O)N3CCCC3)cc21	-2%	0.47
CCC[C@@]1(C)C(=O)NCCN1Cc1ccco1	2%	-0.15
O=C(c1cccc(Cl)c1)[C@H]1CCCN(S(=O)(=O)c2ccc(F)c(F)c2)C1	2%	-0.44
COc1ccc(C(=O)N2CC[C@](C)(O)[C@H](C)C2)o1	1%	-0.27
CC(=O)N[C@@H](CC(C)C)C(=O)N1CCN(Cc2ccc(-c3noc(C4CCCC4)n3)cc2)CC1	2%	-0.25
CCN(CC)c1ccc(NC(=O)c2cnn(-c3ccc(=O)[nH]n3)c2C(F)(F)F)cn1	-16%	2.66
Cn1ncc2c(N(Cc3cccnc3)C3CC3)ncnc21	5%	-0.61
Cc1nnc(CCNC(=O)c2cnc(-c3cccs3)nc2)s1	-14%	2.66
Cc1c(CNC[C@H]2CCCCN2C(C)C)cnn1C	-16%	1.81
CC(C)(C)CNC(=O)C(C)(C)NC(=O)Nc1cccc(C(F)(F)F)c1	-8%	1.27
CN(C)C[C@]1(O)CCCN(C(=O)Nc2ccc(Oc3ccccc3)cc2)CC1	-6%	0.77
Cc1cccc(NC(=O)Cn2c(=O)n(Cc3ccc(Cl)cc3)c(=O)c3ccccc32)c1C	4%	-0.63
O=C(NC[C@H]1COCCO1)c1cc(F)c[nH]1	-11%	1.42
O=S(=O)(c1cncc(F)c1)N(Cc1ccco1)c1ccccn1	-11%	1.05

SMILES	% Inhibition	Z score
Cc1nc(CNC(=O)c2coc(C3CC3)n2)no1	0%	-0.06
CCn1cc(S(=O)(=O)N2CCC(c3noc(COCCOC)n3)CC2)cn1	-4%	0.51
Cc1cc(NC(=O)NCCc2c(C)nn(C)c2C)n(-c2ccccn2)n1	1%	-0.08
CC(Cn1cncn1)NC(=O)NC1CN(Cc2ccccc2)CC1C (centres undefined)	-1%	0.12
CCc1oc(C(=O)N2CCN(c3ccc(C#N)nc3)CC2)cc1C	0%	0.05
CCOC(=O)N1CCC(Nc2nc(-c3ccccc3)no2)CC1	-22%	1.93
Cc1cc2occ(C(=O)NC[C@]3(O)CCS(=O)(=O)C3)c2cc1C	6%	-1.21
COC[C@]1(C(=O)O)CCCN(C(=O)OC(C)(C)C)CC1	-8%	1.55
CCc1cc(C(=O)Nc2ccccc2)c2c(C3CC3)nn(-c3ccccc3)c2n1	30%	-3.34
CCOC(=O)C(=O)N1CCN(c2nccc(-c3ccc4c(c3)OCO4)n2)CC1	-33%	2.88
CN1CN(c2cccc(C#N)n2)CC1=O	-15%	1.32
CC(C)Cc1nc([C@@H]2CCCNC2=O)n(CCO)n1	-7%	0.98
CCc1cccc(C(=O)NC2CCOC3(CCOC3)C2)c1O (centres undefined)	4%	-0.6
Cc1noc(C2CCN(CC(=O)N3CCC(C(=O)N(C)C(C)C)CC3)CC2)n1	3%	-0.47
Cn1ccc(NC(=O)Cn2ncc(=O)c3ccccc32)n1	8%	-1.42
CO[C@H]1CCC12CCN(S(=O)(=O)c1ccc(C)cc1)CC2	-8%	1.08
CC[C@H]1COCCN1C(=O)c1cc(CN(CC)CC)oc1-c1ccccc1	-23%	2.28
CC(=O)N1CCCN(CC(c2ccccc2)c2ccccc2)CC1	-2%	0.26
CC(C)N(C)CC1CCN(C(=O)[C@@H](C(=O)O)C(C)(C)C)CC1	-6%	0.99
CC(C)N1CCO[C@@H](CC(=O)NCCn2ccnn2)C1	-11%	2.3
COC(=O)c1ccc(-c2nc(CN3C(=O)c4ccccc4C3=O)c(C)o2)cc1	2%	-0.31
